According to article PMC10726135:
The other results are listed elsewhere or left out. At the low end of the ranking the order means little. The protein was read in a cell extract, so binding may be indirect.

Target: T1, HNF4alpha2 (COS-7 nuclear extract) (UniProt P41235)
T1 sequence: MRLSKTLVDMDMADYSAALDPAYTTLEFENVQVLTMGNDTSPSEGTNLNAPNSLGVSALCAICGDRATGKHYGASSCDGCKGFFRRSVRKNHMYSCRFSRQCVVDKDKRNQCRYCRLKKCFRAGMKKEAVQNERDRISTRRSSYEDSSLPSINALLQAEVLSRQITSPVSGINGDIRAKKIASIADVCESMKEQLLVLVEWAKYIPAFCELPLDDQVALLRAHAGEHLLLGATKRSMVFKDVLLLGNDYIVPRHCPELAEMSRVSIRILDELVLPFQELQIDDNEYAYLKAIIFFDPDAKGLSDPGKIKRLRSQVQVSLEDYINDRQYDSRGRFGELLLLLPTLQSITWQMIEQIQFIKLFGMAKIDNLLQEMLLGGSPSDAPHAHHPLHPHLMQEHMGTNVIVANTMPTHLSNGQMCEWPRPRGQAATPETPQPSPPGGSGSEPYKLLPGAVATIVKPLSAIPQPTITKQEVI
Experiment: protein-binding microarray
Conditions: COS-7 nuclear extract on double-stranded Agilent 4x180k PBM; binding buffer, salt, pH and temperature not given; high values mean tight binding; double strand, one strand shown; sequences stand for … in …GCCTAGGGAGATTAGAGTATCGGTCGA

Sequence	binding signal (log2 normalized intensity)
CTTTAGCATATTACACCTGTAGCTTCCGAA	-1.08
TTTGCCTCATTCTTATTGCCTCATGTTTGC	1.97
TGTCCGTTCCTGCCTGGAGCCACTGAAGTG	-1.14
TGCTCCCTGCCCCTACCCCCACCCTGTGTT	5.67
CAAAGGGCATCAGCCCCAATGGCTAAGGTC	1.47
TCCAGAGATGCCAGGAGAGCCGAAGCAGTC	-0.989
CCCAGGGAGAAAGGTCAGGGGCAGGGTCGC	0.841
CACCAAAAATCACTTGGATAGCGCGTGGCC	-1.09
CAGAAAGTGACGTGCAGAGGAGCAACTCAT	-1.27
AAATGCATTTCCTTATTCTTAACAAGCTGA	-1.13
CTATTTCAGGAATGTGACCCCTTTCATGAA	3.86
TCTTACCCAACCAAAAACAAAACTGGTCAT	1.68
AAGGCTCTTTGTTCAGAGGGCATGTTGAGT	1.52
CTTTGGAGTTTACTTTAGATGTGTTTGAGT	1.79
GCAGGAGCCCAAGAAGCGTCAGTTGCCTCG	-1.18
TTTTATTTTCCCCCTTTGAAGTCTGCCCTC	4.45
CCAGGGGACGTGGAATAGATCAGCTTTCAA	-1.07
GCTCAAGTCTTTTAGAATGTGGATGGGCTG	1.35
TTTCTGAGGAGCTAACAGTAAAACTGAGAT	-1.03
AAGAAACATTTTACAACCTATTCTCTCTGA	-1.1
TTTGACCTTAAGTCAGAAGAACTGATTCCA	1.19
GCCTTGCAGGTTCTCAGAAACGCCTGGCGC	-1.06
TGAACCAATGCCACAGAAAAGGCAGCAGCT	-1.13
AAGGAATGTAATGTATGCATAGACTGCCCA	0.907

Sequence	binding signal (log2 normalized intensity)
CTCTGAAGTTTAATCCTCTCACCCAAGATC	2.17
CCTTTCCCTTATCTTTGTTATCTGTTGGTT	2.62
CCCCTGCAATACAGCCTTGTTTACAACGCT	-1.18
AGCGGGGCCTCTGTGTGGGGCTGATAAGGC	-1.05
GACTGCAGAGATTGGAATCTCTGCACAGCA	-1.14
GACTCTGAGCCTCCTCCCTCTCTCTCTTAA	-1.18
ATGAGTCTTGGGAATGAATCAGAATTTGGA	1.14
GCCTCGCCCTGCTTCGGCTCGCGCACGGTG	-1.02
CTGAAGCATGCTATTTCAGGAATGTGACCC	4.23
CTAAGTCTTTCCACACAGCCTGTCAAAGGG	0.847
TCAGTCTGAGATAGTCATTCTTCTACAGTG	0.876
TCACTGCTGGTGGGTGGGGGAAGTGTGGTC	1.37
TGTAGGCCGTAACTGTCTCTGTTGCTCAAT	0.109
GAGGGCGCTGTTGATGGGCAGCGCGGCGCG	-1.06
CCCATTCTGTGCTGGCCCTGGGGGTGGGGG	-0.904
GTGGGAGGGAGGCTTTTGCAGTCACTCTCT	-1.16
AGGTCACAGCATTAGAGCAACCAGAATGTT	-1.13
GGGCCCCAGGGGACGTGGAATAGATCAGCT	-1
GGGGACTGCCTCTTCAGGAGGCACTGATAA	-1.07
CAGACTGGTGCTATGTCCCTGACTGTGTGG	0.55
CCCAGGTCCTTTGGTCTGGCATTCAGCGCC	-1.18
AGGAAAGGGCTTTGGGGACTGAAGACTTTG	-1.18
CCAGGAGAGCCGAAGCAGTCAAATGACCCT	3.7
CCTGAAGCTGCCCTTTGCACATGCCCCTCC	4.57

Sequence	binding signal (log2 normalized intensity)
GCTCATGCAGCTGCTGCCCAAAGGTCACCT	4.93
AGTTCATAGCAAAGTTTTTGTTCAATATGC	1.08
CACGTCTCAAGCTTCAGGAGTCCACTGTGT	1.89
AAAGATCACACAAATGGATCTTTCTTCAAA	-1.1
GCCCCAGTAAAACTGGAAAATCAAAGACTC	-1.07
AATCCTTAAGCAGCAGATAAGGCTAATCCT	-1.15
TTGTATTTTGCCAAAGAGGTCTTATGCTCA	0.386
TCACTTGTTTATCTGCTGCCCTTCCCTCCA	2.79
TGCACTTTGACCGCTCATTTGATCCTCACA	3.87
TTGACCTTTAGAAGGTTATTAGTGATAAGC	2.86
AAGGTCACAGCACTGTTTATTTTGTGTGAT	1.39
AAGTTGGAATTTGGGTGATCCTGGTAGCAG	0.0957
AGGCTTGCAATGCGGAATGACATTCAGCAA	-1.01
ACCCTGACCTGGCATATCTCTGTCCCTGAT	1.13
TGGCTCTGAAAAACAAAATGCATTTCCTTA	-0.626
AGTGCACATTCCAGAGAAATAGTGAGACAG	-1.17
GGGTAAAATGAGAATGAGACCTGCTAGGCT	-1.13
TCTGATCTTTGACTTCTAGTTCTTATCTCA	0.35
CACCTGAGTCCAGAGGTCAAGGCTGCAGCG	3.34
TTTGAAATAGTGACCTCTGCTGGCCAGTGG	1.75
AAGAGACTTTGCCCTTTTTTTCTCTCCCCT	3.42
AAATAATTACTTCTTGAAGCCACTTGCTTA	-0.981
AACTGTAGTGCATAGTGGGTTTCGGTGTCA	1.81
TCTTCACCTGCCCTGAGTCCAGCCTTCCTG	0.422

Sequence	binding signal (log2 normalized intensity)
GGTGGACTGATAGGTGCGTGGGGGAGGGGC	-1.14
TACAAAATTTACTTTAAATACACCTAACCC	-1.06
CCAGTGTGTTGTGCTGACCTCCTGTCTCAT	2.51
CATCTGGGCAAGGTGTCAACCTTCATTCTC	1.26
CCAACAAAAGAAAGCCCATTAAATCTTCCC	-1.19
GTGGCCTTGCCATTGGAGGTCACCCTGTGT	2.16
GATCCCGAAAGCCGGTTCCCGCCCAAGGAG	-1.19
GAATTCCACAGCAGAAGGCAACAGCTCTGG	-1.22
GGGAAAACCTGACTGCGCTCCCAGAAGCCT	-1.08
TCTCCCAATCTCGAGATCATTTACATGTGT	1.91
GTCAAAAGGGGAAATATGTAGGTTTGGGGA	-1.18
AAAGTTTGGACTAGCCACAGGGGAAACACA	-1.19
TGTTCCACAGCAAGTAAATTCCGGGGCTGG	-0.993
TCATAATTTTGGACTTTGTGCAAATGGAAA	3.85
GTCAGATGACAGAATTGGTCCTGGAACTCA	-0.0244
TGAGGATACCAGAAATTCCATGATTTTCTG	-1.21
ACTGCCTGACCCCAAGTAATAGCCGTTTCT	1.07
AGACACAAAAAGGCAAAGGTGTCAGGACCT	-1.02
AAGCAGCATTCCACCAAATCTTACCTAAGG	-1.28
TTCAGGGAGCGAATAAATACATAAAGTCCA	1.08
ACCAAACAGAGAGAAAGCAGTGACCATCCC	-1.02
